PubChem BioAssay AID463173 (ICCB-Longwood Screening Facility, Harvard Medical School, 2010)
About 1,700 (3.3%) of roughly 52,000 compounds were called active. No stated cut-off is given here; in the data, active means survival mostly below about 52% (no sharp cut-off); inactive means mostly above about 56%. This is one part of the list.

These molecules were tested on Wild type (assay: growth inhibition of S. aureus wild type versus tarO mutant, primary screen, teichoic acid synthesis inhibitors, RN4220, OD600 (AID 463173)). Settings: S. aureus RN4220 wild type/DeltatarO growth, OD600, 18 h, stronger effect = lower value, screened at 18.75 µg/mL (by protocol).

Row | Structure (SMILES) | survival
1 | COCCn1nnnc1CN(Cc1ccco1)Cc1cc2cc(OC)ccc2[nH]c1=O | inactive: 107%
2 | COc1ccc(NC(=O)C2CCN(S(=O)(=O)c3cccc(-c4noc(C)n4)c3)CC2)cc1OC | inactive: 72%
3 | CC(C)c1ccc(S(=O)(=O)N2CCC(n3c(C(F)(F)F)nc4cccnc43)CC2)cc1 | inactive: 75%
4 | CC(C)c1ccc(CN(C(=O)c2cc3ccccc3oc2=O)C2CCS(=O)(=O)C2)cc1 (centres undefined) | inactive: 68%
5 | CCOCCn1ccc2c(OCC(=O)Nc3ccc(C(N)=O)cc3)cccc2c1=O | inactive: 32%
6 | Cc1cc(C)nc(NC(=O)C(c2ccccc2)c2ccccc2)n1 | inactive: 119%
7 | Cn1c(-c2ccc(NC(=O)c3ccccc3)cc2)n[nH]c1=S | inactive: 113%
8 | COc1cccc2sc(N(Cc3cccnc3)C(=O)c3ccc4c(c3)OCCO4)nc12 | inactive: 75%
9 | CCCc1nc2ccccc2c(NC(=O)CN(CC)CC)c1CC | inactive: 103%
10 | CC(NC(=O)C1CCN(S(=O)(=O)Cc2ccccc2)CC1)c1ccccc1 (centres undefined) | inactive: 86%
11 | COC(=O)c1cc2occc2n1Cc1nc(-c2ccccc2)oc1C | inactive: 80%
12 | CCCc1nn2c(=O)cc(COC(=O)c3ccc(NC(=O)COc4ccc(F)cc4)cc3)nc2s1 | active: 10%
13 | CN(C)c1ccc(CNC(=O)C2CCN(c3nc4ccccc4[nH]3)CC2)cc1 | inactive: 45%
14 | Cc1cc(S(=O)(=O)N2CCN(Cc3noc(CCC(=O)N4CCCCC4)n3)CC2)ccc1F | inactive: 68%
15 | CCNS(=O)(=O)c1cccs1 | inactive: 108%
16 | CC(C)c1ccc(-c2nnn(CC(N)=O)n2)cc1 | inactive: 115%
17 | Cc1cccc(NC(=O)Cn2cc(C(=O)C3CCCCC3)c3ccccc32)c1 | inactive: 116%
18 | CSc1ccc(CCNC(=O)NCc2noc3ccccc23)cc1 | inactive: 89%
19 | COc1ccc(Cn2c(CCC(=O)NCc3ccc(Cl)cc3)nc3cccnc32)cc1 | inactive: 110%
20 | COc1cc2c(-c3cccc(Cl)c3)nc3c(c(C)nn3-c3ccccc3)c2cc1OC | inactive: 90%
21 | COc1cccc(CNC(=O)c2cnc3sc(N4CCCC4)nn3c2=O)c1OC | inactive: 65%
22 | CCOC(=O)COc1ccc(C2C(C(=O)OC)=C(C)NC3=C2C(=O)c2ccccc23)cc1Cl (centres undefined) | inactive: 130%
23 | CCOC(=O)CC(NC(=O)CCc1c(C)nc2c(-c3ccccc3)c(C)nn2c1C)c1ccc(OC(C)C)cc1 (centres undefined) | inactive: 85%

Row | Structure (SMILES) | survival
24 | COc1ccc(CNc2nc(-c3ccco3)nn2S(=O)(=O)c2ccc(Cl)cc2)cc1OC | inactive: 81%
25 | O=C(CSc1cn(CC(=O)N2CCCC2)c2ccccc12)Nc1ccc(Cl)cc1 | inactive: 95%
26 | COc1ccc(Cl)cc1NC(=O)c1cc2c(=O)n3ccccc3nc2s1 | inactive: 97%
27 | CCOC(=O)c1cc(S(=O)(=O)Nc2cc(OC)ccc2OC)[nH]n1 | inactive: 123%
28 | Cc1ccc(C(=O)NCC(c2ccc3c(c2)OCO3)N2CCOCC2)cc1C (centres undefined) | inactive: 82%
29 | COC(=O)c1c(NC(=O)CCCOc2cccc(C)c2)sc2c1CCC2 | active: 12%
30 | Cc1cc(O)c(C(c2cccc(F)c2)N2CCN(c3ccccc3)CC2)c(=O)n1Cc1ccco1 (centres undefined) | inactive: 65%
31 | CN(c1ccccc1)S(=O)(=O)c1ccc(NC(=O)c2nc(S(C)(=O)=O)ncc2Cl)cc1 | active: 2%
32 | COc1ccc(-c2c(C#N)c(SCC(=O)Nc3ccccc3C)nc(C)c2C(=O)Nc2ccc(Cl)cc2)cc1 | inactive: 146%
33 | Cc1cc(C)n(-c2nnc(Nc3ccc(C)c(C)c3)c3ccccc23)n1 | inactive: 84%
34 | CCOCC(=O)Nc1nnc(CC)s1 | inactive: 106%
35 | O=C1Nc2ccccc2Oc2cc(Oc3ccccc3)ccc21 | inactive: 41%
36 | Cc1ccc2cc(C#N)c(N3CCCN(C(=O)C4CCCCC4)CC3)nc2c1 | inactive: 120%
37 | Cc1ccc(C)c(CN2C(=O)c3ccccc3S(=O)(=O)c3ccc(C(=O)OCC4CCCO4)cc32)c1 (centres undefined) | inactive: 71%
38 | COc1ccc(NC(=O)Cn2c(SCc3ccc(C)cc3)nc3cccnc32)cc1OC | inactive: 92%
39 | COc1ccc(NC(=O)c2sc3nc4c(cc3c2N)CN(Cc2ccccc2)CC4)c(OC)c1 | inactive: 67%
40 | CCCC(=O)Nc1nnc(S(=O)(=O)N(C)Cc2ccc(Cl)cc2)s1 | inactive: 101%
41 | Cc1cccc(Cn2c(=O)n3nc(-c4ccccc4)nc3c3ccccc32)c1 | active: -24%
42 | CC(C)c1ccc(S(=O)(=O)c2nnn3c2nc(N2CCCC2)c2sccc23)cc1 | inactive: 89%
43 | COc1ccc(C2c3cc(OC)c(OC)cc3CC(=O)N2c2ccc(C)cc2)cc1 (centres undefined) | inactive: 86%
44 | CCC(C)c1ccc2oc(-c3ccc(NC(=O)c4cc5ccccc5o4)cc3)nc2c1 (centres undefined) | inactive: 67%
45 | COc1ccccc1Nc1nc(-c2ccccc2F)nc2ccccc12 | inactive: 73%
46 | Cc1cccc(-c2nn3c(=O)cc(CN4CCN(C(=O)/C=C/c5ccccc5)CC4)nc3s2)c1 | inactive: 74%

Row | Structure (SMILES) | survival
47 | Cn1c(=O)[nH]c2cc(-c3noc(-c4ccc(Br)cc4)n3)ccc21 | inactive: 55%
48 | COc1cc2c(C(=O)Nc3cc(OC)c(OC)c(OC)c3)cn(C)c(=O)c2cc1OC | inactive: 66%
49 | O=C(CC1N=C2c3ccccc3N=C(SCc3ccc(F)cc3)N2C1=O)NCc1ccc2c(c1)OCO2 (centres undefined) | inactive: 74%
50 | O=C(NCCN1CCN(c2cccc(Cl)c2)CC1)Nc1ccccc1 | inactive: 73%
51 | CCc1ccc(NC(=O)c2ccc(-c3ccccc3)s2)cc1 | inactive: 156%
52 | Cn1c2c(c3ccccc31)CCc1nonc1-2 | inactive: 109%
53 | CCOC(=O)C1CCN(c2ncnc3c2nc2n3CCCCC2)CC1 | inactive: 76%
54 | Cc1cccc(C(=O)NCC(c2ccco2)S(=O)(=O)c2cccs2)c1 (centres undefined) | inactive: 90%
55 | CCc1ccc(NC(=O)c2cnn(-c3ccccc3)c2-n2cccc2)cc1 | inactive: 16%
56 | CCC(Oc1ccccc1)C(=O)Nc1nnc(S(=O)(=O)N(CC)CC)s1 (centres undefined) | inactive: 100%
57 | CCc1cnc2c(c1SCC(=O)NCc1ccccc1Cl)c(=O)n(C)c(=O)n2C | inactive: 75%
58 | COc1cccc(-c2noc(C3CCCN(S(=O)(=O)c4ccccc4F)C3)n2)c1 (centres undefined) | inactive: 118%
59 | Cc1cccc(NC(=O)c2ccc(-c3ccccc3)s2)c1 | inactive: 82%
60 | COC(=O)c1c(NC(=O)c2ccc(S(=O)(=O)N3CCC(C)CC3)cc2)sc2c1CCN(C)C2 | inactive: 45%
61 | Cc1ccccc1CNC(=O)c1cnc2sc(N3CCC(C)CC3)nn2c1=O | inactive: 76%
62 | COc1cc2ccccc2cc1C(=O)Nc1cccc(-c2nc3cc(C)c(C)cc3o2)c1 | inactive: 58%
63 | Cc1cc(C)c(NC(=O)C2CCN(c3nc4ccccc4n4cccc34)CC2)c(C)c1 | inactive: 80%
64 | CCn1c(SCC(=O)N2CCCCC2)nnc1-c1ccc(S(=O)(=O)N2CCCC2)cc1 | inactive: 105%
65 | CN(C(=O)CSc1nnc(NC(=O)Nc2ccccc2)s1)c1ccccc1 | inactive: 93%
66 | Brc1cccc(-c2nnn3c2nc(NCc2ccc4c(c2)OCO4)c2ccccc23)c1 | inactive: 138%
67 | CC(C)NC(=O)C1CCC(Cn2c(=O)c3sccc3n(Cc3ccc(F)cc3)c2=O)CC1 (centres undefined) | inactive: 54%
68 | COc1ccc(-n2ncc(C(=O)NCc3ccco3)c2C2CCN(C(=O)OC(C)(C)C)CC2)cc1 | inactive: 59%
69 | O=C(NCC(c1cccnc1)N1CCc2ccccc21)c1cccc(Br)c1 (centres undefined) | inactive: 65%

Row | Structure (SMILES) | survival
70 | CC(C)c1cccc(C(C)C)c1NC(=O)c1ccncc1 | inactive: 99%
71 | COC(=O)c1c(-c2ccc(Cl)cc2)noc1N1CCN(c2cc(C)ccc2C)CC1 | inactive: 115%
72 | COc1cccc(NC(=O)C2CCCN(S(=O)(=O)c3cn(C(C)C)cn3)C2)c1 (centres undefined) | inactive: 129%
73 | CCOc1ccc(CCNC(=O)c2cc3cccc4c3n2CCS4)cc1 | inactive: 69%
74 | CC(C)(C)c1ccc(/C=C/C(=O)Nc2ccc(S(N)(=O)=O)cc2)cc1 | inactive: 92%
75 | N#CC1=C(N)C(C#N)(C#N)C(c2ccccc2)C2CCCC=C12 (centres undefined) | inactive: 114%
76 | CCCNC(=O)Cn1c(=O)n(CC2CCC(C(=O)NC)CC2)c(=O)c2sccc21 (centres undefined) | inactive: 68%
77 | CCN(CC)S(=O)(=O)c1ccc2c(c1)N(CC(=O)Nc1ccccc1F)C(=O)C1CCCN21 (centres undefined) | inactive: 72%
78 | Cc1ccc(NC(=O)/C(C#N)=C/c2ccc(-c3ccc(Cl)c(C(=O)O)c3)o2)cc1C | inactive: 64%
79 | CCOc1cccc(NC(=O)C2CC(=O)N(CC)C(=Nc3ccc(F)cc3)S2)c1 (centres undefined) | inactive: 34%
80 | O=C1CS(=O)(=O)C2(C(=O)N(Cc3ccccc3Cl)c3ccccc32)N1c1ccc(F)cc1 (centres undefined) | inactive: 85%
81 | COc1ccc(Cn2c(C(=O)O)c(CNCCc3ccco3)c3ccc(OC)cc32)cc1 | inactive: 111%
82 | COc1ccc(N2CCN(c3ncnc4c3cnn4C)CC2)cc1 | inactive: 70%
83 | Cc1cccc(C(=O)Nc2ccc(S(=O)(=O)N3CCC(c4nc5ccccc5s4)CC3)cc2)c1 | inactive: 79%
84 | CCCN(C(=O)C(C)C)c1nnc(-c2cc(OC)c(OC)c(OC)c2)s1 | inactive: 120%
85 | O=C(COC(=O)c1ccccc1Cl)Nc1nccs1 | inactive: 97%
86 | C=Cc1ccc(Cn2c(C(=O)O)c(CNCc3ccc(F)cc3)c3ccc(C)cc32)cc1 | inactive: 68%
87 | Cc1cc(C)c(NC(=O)CSc2ncc3c(n2)-c2cc(Cl)ccc2N(C)S3(=O)=O)c(C)c1 | inactive: 124%
88 | CCC(C)(C)NC(=O)C1CCN(S(=O)(=O)c2ccc3c(c2)CCCN3C(C)=O)CC1 | inactive: 71%
89 | CNC(=S)N(Cc1cc2ccc(OC)cc2[nH]c1=O)C1CCCC1 | inactive: 110%
